In article PMC6212790:
This is one part of the list. At the low end of the ranking the order means little.

target: T1, GST-Rok (full length) (UniProt O34857); assay: protein binding microarray; conditions: Rok is a gene silencer of Bacillus subtilis; high values mean tight binding; most listed sequences are background and not binding sites; double strand, one strand shown;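 further: rank score from −0.5 (least bound) to 0.5 (best bound)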
T1 sequence: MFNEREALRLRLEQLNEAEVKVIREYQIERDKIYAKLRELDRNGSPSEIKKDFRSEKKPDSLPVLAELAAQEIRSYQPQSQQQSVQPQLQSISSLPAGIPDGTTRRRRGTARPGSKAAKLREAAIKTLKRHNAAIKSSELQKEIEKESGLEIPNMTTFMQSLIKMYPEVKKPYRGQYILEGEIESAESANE

Sequence	binding signal [E-score]
GCTAGCGA	-0.14
GTAGAGAC	0.148
CTGCGGAA	-0.0612
TCGCAACA	-0.0642
AGTTCTTC	0.108
ATTTATTG	0.348
AACATCCT	0.0603
TAGCGACA	0.06
CCGCGAAC	-0.108
ATTTAACG	0.119
CGTCTTAG	-0.153
CACTCTGA	-0.192
TGTTCTAA	0.14
GATGTACC	0.0515
GACGTTAC	0.0523
CCAGAGAG	-0.238
GACCGATC	-0.0838
TAGTTACA	0.349
CACTAACA	0.166
CCCGGCAC	-0.109
CCACCGGC	-0.237
CACGAGAA	-0.194
TAAGACTA	0.101
ATGTAATC	0.0219
GGGACCAA	-0.313

Sequence	binding signal [E-score]
AGCGCACT	-0.17
ACCGAACT	0.181
CCGCCTCC	-0.353
AGTTTTTG	0.132
CATGCCGG	-0.273
CATAAACC	0.11
CCAAGTCC	-0.24
ACTGACAG	0.0295
TAACAAAA	0.181
GATGATAC	0.1
AAGATGCT	-0.108
ATCCGAGA	0.141
GCCAGCCC	-0.31
ACCGAAGG	-0.228
ACGCCACA	-0.0467
ATTCTATA	0.247
ACCTATCC	0.0402
CACGTTAC	0.195
CAACATAG	0.0718
CTCTCGCC	-0.343
CTGTACAC	-0.0342
ACCAGTGC	-0.175
CGATATGA	-0.103
AAGGAAGG	-0.306
ATTCTTGA	-0.0119

Sequence	binding signal [E-score]
CATCTATA	0.199
GATGCAAC	0.0442
CCAGACAG	-0.312
CACATAGC	0.177
GAGAGCCC	-0.474
AACAAGTC	-0.0897
AGATCGTG	0.0263
CCTTGTAA	-0.0485
TGTGCACA	-0.0141
GTAGGATA	0.103
AAGATGTA	0.23
GCCCGGTA	-0.203
ACTCGCCA	-0.0788
ATTCCCCC	-0.278
AGTGCTAC	0.156
AAATAGTC	0.119
CAAAACCG	-0.264
CCATCATA	0.112
AATTTAAC	0.207
GAGATATA	0.157
ATCGAGGG	-0.0869
CAGGCATC	-0.162
CTAGTGAG	-0.0281
ATGGGATA	0.182
CTACAGAG	0.0344

Sequence	binding signal [E-score]
TGACCCCA	-0.335
TGCTATAA	0.304
AAGCTGCT	-0.115
CCGTAACC	-0.0179
CCGCAAAC	-0.164
GCATTTCA	-0.00805
CAGACGAA	-0.0357
GCCGGAGA	-0.257
GAACAACA	-0.0557
ACTCGTTA	0.299
AGCCAACT	-0.0605
CACACCGA	0.0585
CGACGATC	-0.127
CGGGGATC	-0.182
GCAAAGAA	0.0419
AACTTGAC	0.054
ACCCTCTG	-0.158
CAGGCTCC	-0.379
TAGACCCA	-0.107
CGAGTGTC	0.113
ATACGGGA	-0.0244
AACCAGGG	-0.249
AGGCGCCT	-0.319
AACTTTTG	0.153
AGACTAAG	-0.0453

Sequence	binding signal [E-score]
AGTTCGGA	0.162
AACGCCCC	-0.349
TCCAATCA	-0.035
AGACAAGC	-0.0419
AAGTGACG	0.0469
AATACTGC	0.188
CAAGTTAG	0.189
CCGCGTAG	0.0119
ACTGCCAG	-0.178
ATGAGGCA	-0.296
AAGTTTCG	0.286
CCTTACAG	0.0844
CATGTTAG	0.0942
ACGATGGC	-0.0658
AATAGATT	0.388
CACACCTA	0.193
ACACTACA	0.276
TCATAAGA	0.256
CCAAAACC	-0.268
ACGCCAAG	0.0853
GTACGGAA	0.219
AGTGGTTC	-0.00325
AACCACGG	0.0182
AGCTGCTC	-0.187
CGATTATA	0.215

Sequence	binding signal [E-score]
AATACAGG	0.029
AGGATTTA	0.0716
GAAATCGA	-0.0156
ACAGATAG	0.238
ATTTACAC	0.23
AAACTAGT	0.459
ATGGGACC	-0.261
CTCATCGC	-0.03
ACGTCGTC	-0.169
GACTTTAC	-0.0941
AGAAGCCG	0.125
GGAACGAA	-0.131
ATGATTAC	0.0788
CGGGCCCA	-0.265
AACCATAC	0.147
CGACCACA	-0.0763
AAATGCAG	-0.183
CCCGACAA	-0.243
AAATCACG	0.21
AGAAGTAC	0.195
ATTTTGGA	0.0687
ATTGGTTC	-0.0336
AAGAGTAT	0.0908
ATACCGGC	0.0494
AACATTGA	0.0541

Sequence	binding signal [E-score]
CCCAGGAA	-0.0394
ATCTGCGC	0.0719
CTCTCTCC	-0.196
ATCGAGTG	0.124
AGGCAATC	-0.0764
ATAGATTG	0.316
ACGATAAC	0.169
CGACTAAC	0.0783
CGGCTGCA	-0.347
AGCAGCCC	-0.246
AAGGTATG	0.0476
ACCCCGCA	-0.369
AGACTGCA	-0.0749
GCGCGATA	0.203
AGATCACG	-0.0727
CAGTTAGC	0.184
AAGCTAGT	0.3
TACATTCA	0.313
CAGGTCAG	-0.0398
AATTTTCG	0.139
ATAAGGTG	0.108
CTAGGCTA	-0.127
